EC50 data for eight molecules are collected here from patent US20220220204A1 (published 2022).

Read-outs that look alike come from different tables or passages of the source.

What all share (test): FACS binding
Assay [1] addresses T1, PD-L1 expressed on CHO-K1 cells (UniProt Q9NZQ7).
Assay [2] addresses T2, LAG-3 expressed on CHO-K1 cells (UniProt P18627 23-525).
T2 chain: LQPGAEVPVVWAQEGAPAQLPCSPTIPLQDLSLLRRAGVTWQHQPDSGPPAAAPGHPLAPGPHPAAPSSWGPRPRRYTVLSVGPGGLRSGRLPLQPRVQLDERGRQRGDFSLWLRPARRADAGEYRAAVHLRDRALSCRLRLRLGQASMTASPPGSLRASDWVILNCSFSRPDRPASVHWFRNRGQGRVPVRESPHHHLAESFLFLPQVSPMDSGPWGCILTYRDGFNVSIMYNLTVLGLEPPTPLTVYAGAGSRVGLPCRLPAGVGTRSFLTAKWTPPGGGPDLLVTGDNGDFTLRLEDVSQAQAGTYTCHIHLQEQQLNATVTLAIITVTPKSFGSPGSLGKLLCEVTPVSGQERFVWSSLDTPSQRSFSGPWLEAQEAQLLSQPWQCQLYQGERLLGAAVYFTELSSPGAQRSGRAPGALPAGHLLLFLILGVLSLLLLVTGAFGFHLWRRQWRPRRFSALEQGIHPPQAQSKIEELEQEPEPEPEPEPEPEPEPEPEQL

The target in assay [3] is T2, LAG-3 expressed on CHO-K1 cells.
Assay [4] concerns the target T1, PD-L1 expressed on CHO-K1 cells. This is another data set of the same source.

T1 sequence (Q9NZQ7 19-290): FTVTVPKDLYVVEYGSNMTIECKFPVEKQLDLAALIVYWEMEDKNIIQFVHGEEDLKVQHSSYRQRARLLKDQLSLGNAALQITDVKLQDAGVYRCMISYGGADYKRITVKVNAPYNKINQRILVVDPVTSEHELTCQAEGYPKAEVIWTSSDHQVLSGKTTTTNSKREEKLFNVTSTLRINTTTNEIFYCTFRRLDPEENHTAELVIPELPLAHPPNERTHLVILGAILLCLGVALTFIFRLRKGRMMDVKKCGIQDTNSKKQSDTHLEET

B1: mPDL1LCv1-E-sLAG3-HCv5 (bispecific antibody)
light: DIQMTQSPSSLSASVGDRVTITCRASQDVSTAVDWYQQKPGKAPKLLIYSASYRYTGVPDRFSGSGSGTDFTFTISSLQPEDIATYYCQQHYSIPFTFGQGTKLEIKRTVAAPSVFIFPPSDEQLKSGTASVVCLLNNFYPREAKVQWKVDNALQSGNSQESVTEQDSKDSTYSLSSTLTLSKADYEKHKVYACEVTHQGLSSPVTKSFNRGECEPKSSDKTHTSPPSPEVQLVESGGGLVQPGGSLRLSCAASGYTVSSYCMGWFRQAPGKGREGVSAIDSDGSVSYADSVKGRFTISKDNSKNTLYLQMNSLRAEDTAVYFCAADLCWVDQDQGEYNTWGQGTLVTVSS
heavy: EVQLVQSGAEVKKPGASVKVSCKASGYIFTGYGITWVRQAPGQGLEWMGEIFPRRVQTYYSEKFKGRVTMTADTSTSTAYMELRSLRSDDTAVYYCARDYDPYFALDYWGQGTTVTVSSASTKGPSVFPLAPSSKSTSGGTAALGCLVKDYFPEPVTVSWNSGALTSGVHTFPAVLQSSGLYSLSSVVTVPSSSLGTQTYICNVNHKPSNTKVDKKV[letters of human IgG1 Fc with changes not shown]
On to B1, for which the concentration for a half-maximal effect (EC50) in assay [1] worked out at 0.241 nM; in assay [2] it was 0.151 nM.

B2: sLAG3-E-mPDL1LCv1-HCv5 (bispecific antibody)
light: EVQLVESGGGLVQPGGSLRLSCAASGYTVSSYCMGWFRQAPGKGREGVSAIDSDGSVSYADSVKGRFTISKDNSKNTLYLQMNSLRAEDTAVYFCAADLCWVDQDQGEYNTWGQGTLVTVSSEPKSSDKTHTSPPSPDIQMTQSPSSLSASVGDRVTITCRASQDVSTAVDWYQQKPGKAPKLLIYSASYRYTGVPDRFSGSGSGTDFTFTISSLQPEDIATYYCQQHYSIPFTFGQGTKLEIKRTVAAPSVFIFPPSDEQLKSGTASVVCLLNNFYPREAKVQWKVDNALQSGNSQESVTEQDSKDSTYSLSSTLTLSKADYEKHKVYACEVTHQGLSSPVTKSFNRGEC
heavy: EVQLVQSGAEVKKPGASVKVSCKASGYIFTGYGITWVRQAPGQGLEWMGEIFPRRVQTYYSEKFKGRVTMTADTSTSTAYMELRSLRSDDTAVYYCARDYDPYFALDYWGQGTTVTVSSASTKGPSVFPLAPSSKSTSGGTAALGCLVKDYFPEPVTVSWNSGALTSGVHTFPAVLQSSGLYSLSSVVTVPSSSLGTQTYICNVNHKPSNTKVDKKV[letters of human IgG1 Fc with changes not shown]
Take B2: the EC50 in assay [1] is 0.541 nM; in assay [2], around 0.0446 nM.

B3: mPDL1HCv1-G9-sLAG3 (bispecific antibody)
heavy: EVQLVQSGAEVKKPGASVKVSCKASGYIFTGYGITWVRQAPGQGLEWMGEIFPRRVQTYYSEKFKGRVTMTTDTSTSTAYMELRSLRSDDTAVYYCARDYDPYFALDYWGQGTTVTVSSASTKGPSVFPLAPSSKSTSGGTAALGCLVKDYFPEPVTVSWNSGALTSGVHTFPAVLQSSGLYSLSSVVTVPSSSLGTQTYICNVNHKPSNTKVDKKV[letters of human IgG1 Fc with changes not shown]GGGGSGGGSEVQLVESGGGLVQPGGSLRLSCAASGYTVSSYCMGWFRQAPGKGREGVSAIDSDGSVSYADSVKGRFTISKDNSKNTLYLQMNSLRAEDTAVYFCAADLCWVDQDQGEYNTWGQGTLVTVSS
light: DIQMTQSPSSLSASVGDRVTITCRASQDVSTAVDWYQQKPGKAPKLLIYSASYRYTGVPDRFSGSGSGTDFTFTISSLQPEDIATYYCQQHYSIPFTFGQGTKLEIKRTVAAPSVFIFPPSDEQLKSGTASVVCLLNNFYPREAKVQWKVDNALQSGNSQESVTEQDSKDSTYSLSSTLTLSKADYEKHKVYACEVTHQGLSSPVTKSFNRGEC
B3: the figures for the EC50 in assay [3] and in assay [4] were 0.4 nM and 0.202 nM, respectively.

B4: mPDL1HCv1-E-sLAG3 (bispecific antibody)
heavy: EVQLVQSGAEVKKPGASVKVSCKASGYIFTGYGITWVRQAPGQGLEWMGEIFPRRVQTYYSEKFKGRVTMTTDTSTSTAYMELRSLRSDDTAVYYCARDYDPYFALDYWGQGTTVTVSSASTKGPSVFPLAPSSKSTSGGTAALGCLVKDYFPEPVTVSWNSGALTSGVHTFPAVLQSSGLYSLSSVVTVPSSSLGTQTYICNVNHKPSNTKVDKKV[letters of human IgG1 Fc with changes not shown]EPKSSDKTHTSPPSPEVQLVESGGGLVQPGGSLRLSCAASGYTVSSYCMGWFRQAPGKGREGVSAIDSDGSVSYADSVKGRFTISKDNSKNTLYLQMNSLRAEDTAVYFCAADLCWVDQDQGEYNTWGQGTLVTVSS
light: DIQMTQSPSSLSASVGDRVTITCRASQDVSTAVDWYQQKPGKAPKLLIYSASYRYTGVPDRFSGSGSGTDFTFTISSLQPEDIATYYCQQHYSIPFTFGQGTKLEIKRTVAAPSVFIFPPSDEQLKSGTASVVCLLNNFYPREAKVQWKVDNALQSGNSQESVTEQDSKDSTYSLSSTLTLSKADYEKHKVYACEVTHQGLSSPVTKSFNRGEC
On to B4, for which the EC50 in assay [1] is 0.359 nM; in assay [2] it was 0.57 nM.

B5: mPDL1HCv5-E-sLAG3 (bispecific antibody)
heavy: EVQLVQSGAEVKKPGASVKVSCKASGYIFTGYGITWVRQAPGQGLEWMGEIFPRRVQTYYSEKFKGRVTMTADTSTSTAYMELRSLRSDDTAVYYCARDYDPYFALDYWGQGTTVTVSSASTKGPSVFPLAPSSKSTSGGTAALGCLVKDYFPEPVTVSWNSGALTSGVHTFPAVLQSSGLYSLSSVVTVPSSSLGTQTYICNVNHKPSNTKVDKKV[letters of human IgG1 Fc with changes not shown]EPKSSDKTHTSPPSPEVQLVESGGGLVQPGGSLRLSCAASGYTVSSYCMGWFRQAPGKGREGVSAIDSDGSVSYADSVKGRFTISKDNSKNTLYLQMNSLRAEDTAVYFCAADLCWVDQDQGEYNTWGQGTLVTVSS
light: DIQMTQSPSSLSASVGDRVTITCRASQDVSTAVDWYQQKPGKAPKLLIYSASYRYTGVPDRFSGSGSGTDFTFTISSLQPEDIATYYCQQHYSIPFTFGQGTKLEIKRTVAAPSVFIFPPSDEQLKSGTASVVCLLNNFYPREAKVQWKVDNALQSGNSQESVTEQDSKDSTYSLSSTLTLSKADYEKHKVYACEVTHQGLSSPVTKSFNRGEC
Regarding B5, the EC50 worked out at 0.193 nM in assay [1] and 0.172 nM in assay [2].

B6: sLAG3-E-mPDL1HCv5 (bispecific antibody)
heavy: EVQLVESGGGLVQPGGSLRLSCAASGYTVSSYCMGWFRQAPGKGREGVSAIDSDGSVSYADSVKGRFTISKDNSKNTLYLQMNSLRAEDTAVYFCAADLCWVDQDQGEYNTWGQGTLVTVSSEPKSSDKTHTSPPSPEVQLVQSGAEVKKPGASVKVSCKASGYIFTGYGITWVRQAPGQGLEWMGEIFPRRVQTYYSEKFKGRVTMTADTSTSTAYMELRSLRSDDTAVYYCARDYDPYFALDYWGQGTTVTVSSASTKGPSVFPLAPSSKSTSGGTAALGCLVKDYFPEPVTVSWNSGALTSGVHTFPAVLQSSGLYSLSSVVTVPSSSLGTQTYICNVNHKPSNTKVDKKV[letters of human IgG1 Fc with changes not shown]
light: DIQMTQSPSSLSASVGDRVTITCRASQDVSTAVDWYQQKPGKAPKLLIYSASYRYTGVPDRFSGSGSGTDFTFTISSLQPEDIATYYCQQHYSIPFTFGQGTKLEIKRTVAAPSVFIFPPSDEQLKSGTASVVCLLNNFYPREAKVQWKVDNALQSGNSQESVTEQDSKDSTYSLSSTLTLSKADYEKHKVYACEVTHQGLSSPVTKSFNRGEC
With B6, the EC50 in assay [1] was 0.532 nM; in assay [2] it was around 0.137 nM.

B7: mPDL1HCv1-Ea-sLAG3 (bispecific antibody)
heavy: EVQLVQSGAEVKKPGASVKVSCKASGYIFTGYGITWVRQAPGQGLEWMGEIFPRRVQTYYSEKFKGRVTMTTDTSTSTAYMELRSLRSDDTAVYYCARDYDPYFALDYWGQGTTVTVSSASTKGPSVFPLAPSSKSTSGGTAALGCLVKDYFPEPVTVSWNSGALTSGVHTFPAVLQSSGLYSLSSVVTVPSSSLGTQTYICNVNHKPSNTKVDKKV[letters of human IgG1 Fc with changes not shown]EPKSSDKGHGGPPGPEVQLVESGGGLVQPGGSLRLSCAASGYTVSSYCMGWFRQAPGKGREGVSAIDSDGSVSYADSVKGRFTISKDNSKNTLYLQMNSLRAEDTAVYFCAADLCWVDQDQGEYNTWGQGTLVTVSS
light: DIQMTQSPSSLSASVGDRVTITCRASQDVSTAVDWYQQKPGKAPKLLIYSASYRYTGVPDRFSGSGSGTDFTFTISSLQPEDIATYYCQQHYSIPFTFGQGTKLEIKRTVAAPSVFIFPPSDEQLKSGTASVVCLLNNFYPREAKVQWKVDNALQSGNSQESVTEQDSKDSTYSLSSTLTLSKADYEKHKVYACEVTHQGLSSPVTKSFNRGEC
Turning to B7, the EC50 came out at 0.538 nM in assay [3] and 0.197 nM in assay [4].

B8: sLAG3-E-mPDL1HCv1 (bispecific antibody)
heavy: EVQLVESGGGLVQPGGSLRLSCAASGYTVSSYCMGWFRQAPGKGREGVSAIDSDGSVSYADSVKGRFTISKDNSKNTLYLQMNSLRAEDTAVYFCAADLCWVDQDQGEYNTWGQGTLVTVSSEPKSSDKTHTSPPSPEVQLVQSGAEVKKPGASVKVSCKASGYIFTGYGITWVRQAPGQGLEWMGEIFPRRVQTYYSEKFKGRVTMTTDTSTSTAYMELRSLRSDDTAVYYCARDYDPYFALDYWGQGTTVTVSSASTKGPSVFPLAPSSKSTSGGTAALGCLVKDYFPEPVTVSWNSGALTSGVHTFPAVLQSSGLYSLSSVVTVPSSSLGTQTYICNVNHKPSNTKVDKKV[letters of human IgG1 Fc with changes not shown]
light: DIQMTQSPSSLSASVGDRVTITCRASQDVSTAVDWYQQKPGKAPKLLIYSASYRYTGVPDRFSGSGSGTDFTFTISSLQPEDIATYYCQQHYSIPFTFGQGTKLEIKRTVAAPSVFIFPPSDEQLKSGTASVVCLLNNFYPREAKVQWKVDNALQSGNSQESVTEQDSKDSTYSLSSTLTLSKADYEKHKVYACEVTHQGLSSPVTKSFNRGEC
Turning to B8, the EC50 in assay [1] amounted to 0.504 nM; in assay [2] it was 0.13 nM.
